# “Also recorded” adds a separate entry of the source.
# T1: human B7-H4 antigen (Homo sapiens, UniProt Q7Z7D3)
# T1 sequence (Q7Z7D3 25-282): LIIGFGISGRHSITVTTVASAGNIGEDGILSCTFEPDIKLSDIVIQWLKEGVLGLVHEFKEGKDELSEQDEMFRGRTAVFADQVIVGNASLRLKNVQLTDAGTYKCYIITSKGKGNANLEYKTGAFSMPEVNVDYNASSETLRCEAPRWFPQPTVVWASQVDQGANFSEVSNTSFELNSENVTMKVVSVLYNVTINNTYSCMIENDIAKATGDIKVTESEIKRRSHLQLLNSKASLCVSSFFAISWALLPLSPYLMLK
# Legend:
# [1] = system: non-transfected Ad293 cells; test: In vitro cytotoxicity (CellTiter-Glo); format: cell-based; settings: six days
# Excerpt: The clone E02-GL was conjugated to the topoisomerase I payload SG3932 at an average Drug Antibody Ratio (DAR) of 8 (providing E02-GL-SG3932) and tested for the ability to target and kill both human B7-H4 transfected and non-transfected Ad293 cells (e.g. the latter representing a negative control). The antibody NIP228 conjugated to SG3932 was used as a control.
# Cell lines were detached from tissue culture flasks by TrypLE Express (Gibco, Paisley, UK), pelleted by centrifugation, and resuspended in growth media (RPMI-1640, 10% FBS). Viable cells were counted by trypan blue exclusion using a Vi-CELL XR Cell Viability Analyzer (Beckman Coulter Life Sciences, Indianapolis, Indiana). Cell densities were adjusted to 3.33×10^4 cells/mL in growth media. […]
# ADCs (e.g. NIP228-SG3932 and E02-GL-SG3932) were diluted into growth media (RPMI-1640, 10% FBS) at a concentration of 240 μg/mL. […] Cells were cultured in a humidified tissue culture incubator at 37° C. in 5% CO2 for six days at which time cell viability was assessed using CellTiter-Glo® assay (Promega, Southampton, UK) according to the manufacturer's protocol. Luminescence was measured using an Envision multilabel plate reader (Perkin Elmer, Seer Green, UK). […]
# human B7-H4 antigen = molecular target: T1, human B7-H4 antigen; test: SPR, antibody capture method; format: binding
# Protocol: To assess whether conjugation of the topoisomerase 1 linker-warhead affected binding properties of the E02-INT antibody, the binding affinity of E02-INT and E02-GL-SG3932 were measured using a DELFIA-ELISA method and an SPR method. […] The kinetic rate constants (kon and koff) and equilibrium dissociation constants (KD) of E02-INT and E02-GL-SG3932 for human B7-H4 antigen was also determined by SPR, using an antibody capture method.
# MX-1 cells = test: Western blot DNA damage response; format: cell-based, human; settings: 10 μg/mL ADC or 10 nM warhead, up to 72 hours
# Protocol: Following treatment of MX-1 cells with NIP228, E02-GL, NIP228-SG3932, E02-GL-SG3932, or the warhead SG3924 as a control (10 ug/ml for the mAbs or ADCs and 10 nM for the warhead), lysate was prepared and subjected to western blot analysis with antibodies to pATR, ATR, pATM, ATM, pH2AX, H2AX and actin (loading control)—see FIG. 17B.
# HT29+huB7-H4 clone 26 and MX-1 cells were plated in 6-well plates at a density of 500,000 and 1,500,000 cells per well respectively in medium containing 10% heat-inactivated FBS. The next day, the plating medium was removed and cells were subjected to incubation with HT29+huB7-H4 clone26 cells with NIP228, E02-GL, NIP228-SG3932, and E02-GL-SG3932 in complete medium at a concentration of 10 μg/mL. The warhead SG3924 was used at 10 nM as a control. After 72 hours, cells were washed once with phosphate-buffered saline (PBS) and then lysed by adding Laemmil Reducing buffer (loading buffer Boston BioProducts). After a brief incubation, cell lysates were collected, equal amounts were loaded onto Bis NuPAGE Novex Bis-Tris gels (Invitrogen) and proteins transferred to polyvinylidene fluoride (PVDF) membranes (Invitrogen). […] After washing, protein bands were detected by using SuperSignal West Femto Chemiluminescent substrate and SuperSignal West Pico Chemiluminescent substrate (Pierce/Thermo Scientific). […]
# SCID mouse PK = format: in vivo; settings: @ 1.25 mg/kg
# Excerpt: The cleavable mal-PEG8-val-ala linker-SG3932 linker-warhead ADC offers the widest relative TI and compares favorably to benchmark. The four comparative linker-warheads are provided below.
molecule,measurement,setting,value
"E02-GL-SG3932: E02-GL conjugated via cleavable mal-PEG8-val-ala linker to TOP1i warhead, DAR of 8 (conjugate) heavy: QVQLQQWGAGLLKPSETLSLACTVYGGSFSGYYWNWIRQPPGKGLEWIGEINHSGSTSYNPSLKSRVTISVDTSKNQFSLKLSSVTAADTAVYYCARVLYNWNVDSWGQGTLVTVSSASTKGPSVFPLAPSSKSTSGGTAALGCLVKDYFPEPVTVSWNSGALTSGVHTFPAVLQSSGLYSLSSVVTVPSSSLGTQTYICNVNHKPSNTKVDKRV[human IgG1 Fc cut from this listing] light: DIQMTQSPSSLSASVGDRVTITCRASQDIRNDVGWYQQKPGKAPKRLIYAASRLQSGVPSRFSGSGSGTEFTLTISSLQPEDFATYYCLQHNSYPRTFGQGTKVEIKRTVAAPSVFIFPPSDEQLKSGTASVVCLLNNFYPREAKVQWKVDNALQSGNSQESVTEQDSKDSTYSLSSTLTLSKADYEKHKVYACEVTHQGLSSPVTKSFNRGEC",cell killing,[1],No significant killing
same,Ka,human B7-H4 antigen,95500 M⁻¹ s⁻¹
same,Kd,human B7-H4 antigen,0.0028 s⁻¹
same,Rmax (RU),human B7-H4 antigen,49.7 RU
same,"DNA damage response signalling (pATM, pATR, pH2AX)",MX-1 cells,leads to double strand DNA breaks; also recorded: activation of the ATM signalling pathway
same,SCID mouse PK CL,SCID mouse PK,11.3 mL/day/kg
